{
  "source": "patent US20100074867A1",
  "about": "“P1-NONEPIMERIZABLE KETOAMIDE INHIBITORS OF HCV NS3 PROTEASE” (Schering Corporation Patent Department, K-6-1; 1990, priority 2007, published 2010)",
  "data": [
    {"target": "HCV NS3/NS4A protease (strain 1a) (Hepatitis C virus genotype 1a, UniProt P27958)", "assay": "HCV continuous spectrophotometric protease assay", "type": "biochemical", "details": "ranges of Ki* values in nM, read-out: Ki*", "from_the_text": "Spectrophotometric Assay Spectrophotometric assay for the HCV serine protease can be performed on the inventive compounds by following the procedure described by R. Zhang et al, Analytical Biochemistry, 270 (1999) 268-275, the disclosure of which, is incorporated herein by reference. The assay based on the proteolysis of chromogenic ester substrates is suitable for the continuous monitoring of HCV NS3 protease activity. The substrates are derived from the P side of the NS5A-NS5B junction sequence (Ac-DTEDVVX(Nva), where X=A or P) whose C-terminal carboxyl groups are esterified with one of four different chromophoric alcohols (3- or 4-nitrophenol, 7-hydroxy-4-methyl-coumarin, or 4-phenylazophenol). Illustrated below are the synthesis, characterization and application of these novel spectrophotometric ester substrates to high throughput screening and detailed kinetic evaluation of HCV NS3 protease inhibitors.\n• Materials: Chemical reagents for assay related buffers are obtained from Sigma Chemical Company (St. Louis, Mo.). Reagents for peptide synthesis were from Aldrich Chemicals, Novabiochem (San Diego, Calif.), Applied Biosystems (Foster City, Calif.) and Perseptive Biosystems (Framingham, Mass.). Peptides are synthesized manually or on an automated ABI model 431A synthesizer (from Applied Biosystems). UV/VIS Spectrometer model LAMBDA 12 was from Perkin Elmer (Norwalk, Conn.) and 96-well UV plates were obtained from Corning (Corning, N.Y.). The prewarming block can be from USA Scientific (Ocala, Fla.) and the 96-well plate vortexer is from Labline Instruments (Melrose Park, Ill.). A Spectramax Plus microtiter plate reader with monochrometer is obtained from Molecular Devices (Sunnyvale, Calif.). […] Protein concentrations are determined by the Biorad dye method using recombinant HCV protease standards previously quantified by amino acid analysis. Prior to assay initiation, the enzyme storage buffer (50 mM sodium phosphate pH 8.0, 300 mM NaCl, 10% glycerol, 0.05% lauryl maltoside and 10 mM DTT) is exchanged for the assay buffer (25 mM MOPS pH 6.5, 300 mM NaCl, 10% glycerol, 0.05% lauryl maltoside, 5 μM EDTA and 5 μM DTT) utilizing a Biorad Bio-Spin P-6 prepacked column. Substrate Synthesis and Purification: The synthesis of the substrates is done as reported by R. Zhang et al, (ibid.) and is initiated by anchoring Fmoc-Nva-OH to 2-chlorotrityl chloride resin using a standard protocol (K. Barlos et al, Int. J. Pept. Protein Res., 37 (1991), 513-520). The peptides are subsequently assembled, using Fmoc chemistry, either manually or on an automatic ABI model 431 peptide synthesizer. […] The combined filtrate and DCM wash is evaporated azeotropically (or repeatedly extracted by aqueous Na2CO3 solution) to remove the acid used in cleavage. The DCM phase is dried over Na2SO4 and evaporated.\nThe ester substrates are assembled using standard acid-alcohol coupling procedures (K. Holmber et al, Acta Chem. Scand., B33 (1979) 410-412). Peptide fragments are dissolved in anhydrous pyridine (30-60 mg/ml) to which 10 molar equivalents of chromophore and a catalytic amount (0.1 eq.) of para-toluenesulfonic acid (pTSA) were added. Dicyclohexylcarbodiimide (DCC, 3 eq.) is added to initiate the coupling reactions. Product formation is monitored by HPLC and can be found to be complete following 12-72 hour reaction at room temperature. Pyridine solvent is evaporated under vacuum and further removed by azeotropic evaporation with toluene. The peptide ester is deprotected with 95% TFA in DCM for two hours and extracted three times with anhydrous ethyl ether to remove excess chromophore. The deprotected substrate is purified by reversed phase HPLC on a C3 or C8 column with a 30% to 60% acetonitrile gradient (using six column volumes).", "units": {"Ki": "nM"}, "values": [
      {"compound": "CC[C@@H]1C[C@@]1(NC(=O)[C@@H]1[C@@H]2[C@H](CN1C(=O)[C@@H](NC(=O)NC1([C@H](C)S(=O)(=O)C(C)(C)C)CCCCC1)C1(C)CCCCC1)C2(C)C)C(=O)C(=O)NCC1CC1", "note": "[70Z]", "Ki": "1000 to 5000"},
      {"compound": "CC[C@@H]1C[C@@]1(NC(=O)[C@@H]1[C@@H]2[C@H](CN1C(=O)[C@@H](NC(=O)N[C@H](CN(C)S(C)(=O)=O)C(C)(C)C)C(C)(C)C)C2(C)C)C(=O)C(=O)NC1CC1", "note": "[1Z]", "Ki": "5000 to 10000"},
      {"compound": "CC[C@@H]1C[C@@]1(NC(=O)[C@@H]1[C@@H]2[C@H](CN1C(=O)[C@@H](NC(=O)N[C@H](CN1C(=O)CC(C)(C)CC1=O)C(C)(C)C)C1(C)CCCCC1)C2(C)C)C(=O)C(N)=O", "note": "[29Z]", "Ki": "1000 to 5000"},
      {"compound": "CC[C@H]1CC1(NC(=O)[C@@H]1[C@@H]2[C@H](CN1C(=O)[C@@H](NC(=O)NC1([C@@H](C)S(=O)(=O)C(C)(C)C)CCCCC1)C1(C)CCCCC1)C2(C)C)C(=O)C(N)=O", "note": "(stereo partly drawn) [24Z]", "Ki": "< 500"},
      {"compound": "CCNC(=O)C(=O)[C@@]1(NC(=O)[C@@H]2[C@@H]3[C@H](CN2C(=O)[C@@H](NC(=O)NC2([C@@H](C)S(=O)(=O)C(C)(C)C)CCCCC2)C(C)(C)C)C3(C)C)C[C@@H]1CC", "note": "[63Z]", "Ki": "> 10000"},
      {"compound": "CCNC(=O)C(=O)[C@@]1(NC(=O)[C@@H]2[C@@H]3[C@H](CN2C(=O)[C@@H](NC(=O)NC2([C@H](C)S(=O)(=O)C(C)(C)C)CCCCC2)C2(C)CCCCC2)C3(C)C)C[C@@H]1CC", "note": "[65Z]", "Ki": "< 500"},
      {"compound": "CCC[C@@H]1C[C@@]1(NC(=O)[C@@H]1[C@@H]2[C@H](CN1C(=O)[C@@H](NC(=O)NC1([C@H]3CCCS3(=O)=O)CCCCC1)C(C)(C)C)C2(C)C)C(=O)C(=O)NC1CC1", "note": "[82Z]", "Ki": "500 to 1000"},
      {"compound": "CCC1CC1(NC(=O)[C@@H]1[C@@H]2[C@H](CN1C(=O)[C@H](NC(=O)NC1([C@@H](C)S(=O)(=O)C(C)(C)C)CCCCC1)C1Cc3ccccc3C1)C2(C)C)C(=O)C(=O)NCC1CC1", "note": "(stereo partly drawn) [38Z]", "Ki": "1000 to 5000"},
      {"compound": "CC[C@@H]1C[C@@]1(NC(=O)[C@@H]1[C@@H]2[C@H](CN1C(=O)[C@@H](NC(=O)N[C@H](CN1C(=O)CC(C)(C)CC1=O)C(C)(C)C)C1(C)CCCCC1)C2(C)C)C(=O)C(=O)NC1CC1", "note": "[79Z]", "Ki": "500 to 1000"},
      {"compound": "CC[C@@H]1C[C@@]1(NC(=O)[C@@H]1[C@@H]2[C@H](CN1C(=O)[C@@H](NC(=O)NC1(CS(=O)(=O)C(C)(C)C)CCCCC1)C(C)(C)C)C2(C)C)C(=O)C(=O)NCC1CC1", "note": "[52Z]", "Ki": "5000 to 10000"},
      {"compound": "CC[C@@H]1CC1(NC(=O)[C@@H]1[C@@H]2[C@H](CN1C(=O)[C@@H](NC(=O)NC1([C@@H](C)S(=O)(=O)C(C)(C)C)CCCCC1)C1Cc3ccccc3C1)C2(C)C)C(=O)C(=O)NC1CC1", "note": "(stereo partly drawn) [42Z]", "Ki": "5000 to 10000"},
      {"compound": "CCNC(=O)C(=O)[C@]1(NC(=O)[C@@H]2[C@@H]3[C@H](CN2C(=O)[C@@H](NC(=O)NC2([C@@H](C)S(=O)(=O)C(C)(C)C)CCCCC2)C2Cc4ccccc4C2)C3(C)C)CC1CC", "note": "(stereo partly drawn) [34Z]", "Ki": "< 500"}
    ]}
  ]
}
